The values that follow come from the supplement of paper PMC12217912.

To fix the notation:
B1: TEV protease; numbered along this chain (parent)
chain: MGESLFKGPRDYNPISSSICHLTNESDGHTTSLYGIGFGPFIITNKHLFRRNNGTLVVQSLHGVFKVKDTTTLQQHLVDGRDMIIIRMPKDFPPFPQKLKFREPQREERICLVTTNFQTKSMSSMVSDTSCTFPSGDGIFWKHWIQTKDGQCGSPLVSTRDGFIVGIHSASNFTNTNNYFTSVPKNFMELLTNQEAQQWVSGWRLNADSVLWGGHKVFMVKPEEPFQPVKEATQL

Variants of B1 are the subject of the experiment. As to the kind of experiment: raw area under fraction-flipped curve 0-4 h after induction (AUC4h, not background-subtracted), DNA-recorder readout of cleavage of the substrate (dimensionless); higher = more cleavage of the substrate by the protease variant. Conditions: temperature: 34 °C; time window: 0-4 h after rhamnose induction. Here is the method:
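In vivo DNA recorder in E. coli TOP10(DE3) ΔrhaA at 34 °C. Each TEVp single-site mutant (parent TEVp 0) is paired with a single-site variant of the 7-mer TEVs (canonical ENLYFQ|S). The substrate sits between flexible linkers in a Bxb1-sfGFP-TEVs-SsrA fusion, so cleavage stabilises Bxb1 and speeds flipping of a recombination array, read by NGS. The value is the raw area under the fraction-flipped curve over 0-4 h after rhamnose induction (AUC4h), with ≥20 reads per time point. It is not background-subtracted; inactive controls average about 0.047.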

The list shows a part of the results. Sequences were assembled here from the parent chain. Inactive controls read about 0.05.
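Note: Bxb1 expression induced with 0.2% (w/v) L-rhamnose at OD600 near 0.5, cultures sampled hourly, flipped fraction per protease–substrate barcode pair counted by paired-end Illumina sequencing.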

Take MGESLFKGPRDYNPISSSICHLTNESDGHTTSLYGIGFGPFIITNKHLFRRNNGTLVVQSLHGVFKVKDTTTLQQHLVDGRDMIIIRMPKDFPPFPQKLKFREPQREERICLVTTNFQTKSMSSMVSDTSCTFPSGDGIFWKHWIQTKDGQCGSPLVSTRDGFIVGIHSASNFTNTNNYFTSVPKNFMELLTNQEAQQWVSGWRLNADSVLWGGHKVFMVKPEEPFQYVKEATQL [P228Y]: the “area with substrate ENLYCQS” value stood at 0.0757, the “area with substrate ENLYDQS” value came to 0.0633, the “area with substrate ENLYGQS” value came out at 0.056 and the “area with substrate ENLYHQS” value amounted to 0.0721. Moreover, the “area with substrate ENLYKQS” value is 0.0648, the “area with substrate ENLYMQS” value amounted to 0.0983, the “area with substrate ENLYNQS” value stood at 0.064 and the “area with substrate ENLYRQS” value is 0.0539. Further, the “area with substrate ENLYYQS” value is 0.0603.
Consider MGESLFKGPRDYNPISSSICHLTNESDGHTTSLYGIGFGPFIITNKHLFRRNNGTLVVQSLHGVFKVKDTTTLQQHLVDGRDMIIIRMPKDFPPFPQKLKFREPQREERICLVTTNFQTKSMSSMVSDTSCTFPSGDGIFWKHWIQTKDGQCGSPLVSTRDGFIVGIHSASNFTNTNNYFTSVPKNFMELLTNQEAQQWVSGWDLNADSVLWGGHKVFMVKPEEPFQPVKEATQL [R204D], for which the “area with substrate ENLYCQS” value is 0.0803, the “area with substrate ENLYDQS” value is 0.0703, the “area with substrate ENLYEQS” value was determined as 0.0708 and the “area with substrate ENLYGQS” value was determined as 0.053. For the same variant, the “area with substrate ENLYHQS” value is 0.0663, the “area with substrate ENLYIQS” value worked out at 0.105, the “area with substrate ENLYKQS” value worked out at 0.0622 and the “area with substrate ENLYMQS” value is 0.0818. The “area with substrate ENLYNQS” value is 0.0743, the “area with substrate ENLYQQS” value turned out to be 0.0623, the “area with substrate ENLYRQS” value was found to be 0.0599 and the “area with substrate ENLYSQS” value came out at 0.0852. The “area with substrate ENLYTQS” value was found to be 0.0689, the “area with substrate ENLYVQS” value was found to be 0.116, the “area with substrate ENLYWQS” value came to 0.0889 and the “area with substrate ENLYYQS” value amounted to 0.0788.
MGESLFKGPRDYNPISSSICHLTNESDGHTTSLYGIGFGPFIITNKHLFRRNNGTLVVQSLHGVFKVKDTTTLQQHLVDGRDMIIIRMPKDFPPFPQKLKFREPQREERICLVTTNFQTKSMSSMVSDTSCTFPSGDGIFWKHWIQTKDGQCGSPLVSTRDGFIVGIHSASNFTNTNNYFTSVPKNFMELLTNAEAQQWVSGWRLNADSVLWGGHKVFMVKPEEPFQPVKEATQL [Q194A]: the “area with substrate ENLYCQS” value was 0.0842, the “area with substrate ENLYHQS” value stood at 0.0693, the “area with substrate ENLYKQS” value was found to be 0.0568 and the “area with substrate ENLYLQS” value worked out at 0.0844. In addition, the “area with substrate ENLYNQS” value amounted to 0.0501, the “area with substrate ENLYPQS” value is 0.074, the “area with substrate ENLYQQS” value amounted to 0.06 and the “area with substrate ENLYVQS” value is 0.0817.
Regarding MGESLFKGPRDYNPISSSICHLTNESDGHTTSLYGIGFGPFIITNKHLFRRNNGTLVVQSLHGVFKVKDTTTLQQHLVDGRDMIIIRMPKDFPPFPQKLKFREPQREERICLVTTNFQTKSMSSMVSDTSCTFPSGDGIFWKHWIQTKDGQCGSPLVSTRDGFIVGIHSASNFTNTNNYFTSVPKNFMELLTNQEVQQWVSGWRLNADSVLWGGHKVFMVKPEEPFQPVKEATQL [A196V], the “area with substrate ENLYCQS” value came out at 0.111, the “area with substrate ENLYDQS” value amounted to 0.047, the “area with substrate ENLYHQS” value is 0.0619 and the “area with substrate ENLYIQS” value is 0.111. Further, the “area with substrate ENLYPQS” value is 0.0904, the “area with substrate ENLYQQS” value turned out to be 0.0634, the “area with substrate ENLYRQS” value is 0.0471 and the “area with substrate ENLYWQS” value was 0.084.
As to MGESLFKGPRDYNPISSSICHLTNESDGHTTSLYGIGFGPFIITNKHLFRRNNGTLVVQSLHGVFKVKDTTTLQQHLVDGRDMIIIRMPKDFPPFPQKLKFREPQREERICLVTTNFQTKSMSSMVSDTSCTFPSGDGIFWKHWIQTKDGQCGSPLVSTRDGFIVGIHSASNFTNTNNYFTSVPKNFMELLTNQTAQQWVSGWRLNADSVLWGGHKVFMVKPEEPFQPVKEATQL [E195T], the “area with substrate ENLYCQS” value was 0.0545, the “area with substrate ENLYGQS” value was 0.0554, the “area with substrate ENLYHQS” value turned out to be 0.0758 and the “area with substrate ENLYIQS” value turned out to be 0.111. Also, the “area with substrate ENLYKQS” value came out at 0.123, the “area with substrate ENLYPQS” value was determined as 0.0705 and the “area with substrate ENLYQQS” value turned out to be 0.0729.
As for MGESLFKGPRDYNPISSSICHLTNESDGHTTSLYGIGFGPFIITNKHLFRRNNGTLVVQSLHGVFKVKDTTTLQQHLVDGRDMIIIRMPKDFPPFPQKLKFREPQREERICLVTTNFQTKSMSSMVSDTSCTFPSGDGIFWKHWIQTKDGQCGSPLVSTRDGFIVGIHSASNFTNTNNYFTSVPKNFMELLTNQEAQQWVSGWRLNADSVLWGGHKVFMVKPEEPFQPVAEATQL [K230A], the “area with substrate ENLYCQS” value worked out at 0.0834, the “area with substrate ENLYEQS” value came to 0.064, the “area with substrate ENLYGQS” value is 0.0584 and the “area with substrate ENLYIQS” value stood at 0.115. Besides, the “area with substrate ENLYMQS” value amounted to 0.128, the “area with substrate ENLYQQS” value was 0.0634, the “area with substrate ENLYRQS” value worked out at 0.0607 and the “area with substrate ENLYSQS” value was 0.0636. Besides, the “area with substrate ENLYWQS” value came to 0.0766.
Take MGESLFKGPRDYNPISSSICHLTNESDGHTTSLYGIGFGPFIITNKHLFRRNNGTLVVQSLHGVFKVKDTTTLQQHLVDGRDMIIIRMPKDFPPFPQKLKFREPQREERICLVTTNFQTKSMSSMVSDTSCTFPSGDGIFWKHWIQTKDGQCGSPLVSTRDGFIVGIHSASNFTNTNNYFTSVPKNFMELLTNQEAQQWVSGWRLNADSVNWGGHKVFMVKPEEPFQPVKEATQL [L211N]: the “area with substrate ENLYCQS” value was 0.106, the “area with substrate ENLYDQS” value worked out at 0.0567, the “area with substrate ENLYEQS” value is 0.0735 and the “area with substrate ENLYHQS” value was determined as 0.0669. Also, the “area with substrate ENLYKQS” value was determined as 0.056, the “area with substrate ENLYMQS” value was 0.119, the “area with substrate ENLYNQS” value was determined as 0.064 and the “area with substrate ENLYPQS” value turned out to be 0.0816. For the same variant, the “area with substrate ENLYSQS” value turned out to be 0.0965, the “area with substrate ENLYTQS” value stood at 0.107 and the “area with substrate ENLYWQS” value was found to be 0.1.
For the variant MGESLFKGPRDYNPISSSICHLTNESDGHTTSLYGIGFGPFIITNKHLFRRNNGTLVVQSLHGVFKVKDTTTLQQHLVDGRDMIIIRMPKDFPPFPQKLKFREPQREERICLVTTNFQTKSMSSMVSDTSCTFPSGDGIFWKHWIQTKDGQCGSPLVSTRDGFIVGIHSASNFTNTNNYFTSVPKNFMELLTNQEAQQWVSGWRLCADSVLWGGHKVFMVKPEEPFQPVKEATQL [N206C], the “area with substrate ENLYCQS” value is 0.049, the “area with substrate ENLYEQS” value amounted to 0.0574, the “area with substrate ENLYGQS” value was 0.069 and the “area with substrate ENLYHQS” value worked out at 0.0739. Further, the “area with substrate ENLYIQS” value stood at 0.121, the “area with substrate ENLYKQS” value is 0.0632, the “area with substrate ENLYMQS” value was 0.0767 and the “area with substrate ENLYNQS” value is 0.0624. Also, the “area with substrate ENLYPQS” value came to 0.0646, the “area with substrate ENLYQQS” value is 0.0663, the “area with substrate ENLYTQS” value was found to be 0.0765 and the “area with substrate ENLYVQS” value worked out at 0.188. The “area with substrate ENLYWQS” value worked out at 0.0788 and the “area with substrate ENLYYQS” value was 0.0814.
MGESLFKGPRDYNPISSSICHLTNESDGHTTSLYGIGFGPFIITNKHLFRRNNGTLVVQSLHGVFKVKDTTTLQQHLVDGRDMIIIRMPKDFPPFPQKLKFREPQREERICLVTTNFQTKSMSSMVSDTSCTFPSGDGIFWKHWIQTKDGQCGSPLVSTRDGFIVGIHSASNFTNTNNYFTSVPKNFMELQTNQEAQQWVSGWRLNADSVLWGGHKVFMVKPEEPFQPVKEATQL [L191Q]: the “area with substrate ENLYCQS” value is 0.0543, the “area with substrate ENLYDQS” value worked out at 0.0698, the “area with substrate ENLYEQS” value worked out at 0.0489 and the “area with substrate ENLYHQS” value amounted to 0.0629. Besides, the “area with substrate ENLYKQS” value was found to be 0.0586, the “area with substrate ENLYLQS” value was 0.0848, the “area with substrate ENLYMQS” value came out at 0.0605 and the “area with substrate ENLYNQS” value is 0.0489. Also, the “area with substrate ENLYPQS” value came to 0.0355, the “area with substrate ENLYQQS” value was 0.0553, the “area with substrate ENLYTQS” value was determined as 0.0808 and the “area with substrate ENLYVQS” value worked out at 0.0646.
In the case of MGESLFKGPRDYNPISSSICHLTNESDGHTTSLYGIGFGPFIITNKHLFRRNNGTLVVQSLHGVFKVKDTTTLQQHLVDGRDMIIIRMPKDFPPFPQKLKFREPQREERICLVTTNFQTKSMSSMVSDTSCTFPSGDGIFWKHWIQTKDGQCGSPLVSTRDGFIVGIHSASNFTNTNNYFTSVPKNFMELLTNQEAQQWVSGWRLNADSVLAGGHKVFMVKPEEPFQPVKEATQL [W212A], the “area with substrate ENLYCQS” value turned out to be 0.064, the “area with substrate ENLYDQS” value was 0.0432, the “area with substrate ENLYGQS” value was determined as 0.0933 and the “area with substrate ENLYVQS” value stood at 0.0768. The “area with substrate ENLYYQS” value amounted to 0.0889.
